Measurements as given in PubChem BioAssay AID1477 (National Center for Advancing Translational Sciences (NCATS), 2009).
In all, about 230,000 compounds went through this assay and fewer than 10 were called active. Inconclusive means that the source gave no clear call. Such entries were picked first, then a sample of the others. The call rests on the fitted dose curve; in most records, active means well fitted curve in the direction sought with a large enough effect; inconclusive means small, poorly fitted or top-dose-only effect, or effect the other way, or another doubt; inactive means no such curve, though single readings can be large or run the other way. No potency is given beside an inconclusive call; the fits are too rough.

target: Runt-related transcription factor 1 (Homo sapiens) + Core-binding factor subunit beta (Homo sapiens) (UniProt Q01196+Q13951); test: qHTS Assay for Compounds Blocking the Interaction Between CBF-beta and RUNX1 for the Treatment of Acute Myeloid Leukemia; settings: AlphaScreen CBFb-His/RUNX1-biotin binding, biochemical; activity, negative = inhibition: at 59.8 µM (top of the series) unless noted; on activity, negative = inhibition: % of control where 0% means no effect
How it was run: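 Interaction loss through any mechanism counts as activity. Pre-formed complex of His-CBF-beta and biotin-RUNX1 (30 nM apiece) is incubated with compound 15 min, then with 50 ng nickel and 50 ng streptavidin beads for 90 min before AlphaScreen detection.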

Chain of UniProt Q01196 (Q01196 whole entry, looked up): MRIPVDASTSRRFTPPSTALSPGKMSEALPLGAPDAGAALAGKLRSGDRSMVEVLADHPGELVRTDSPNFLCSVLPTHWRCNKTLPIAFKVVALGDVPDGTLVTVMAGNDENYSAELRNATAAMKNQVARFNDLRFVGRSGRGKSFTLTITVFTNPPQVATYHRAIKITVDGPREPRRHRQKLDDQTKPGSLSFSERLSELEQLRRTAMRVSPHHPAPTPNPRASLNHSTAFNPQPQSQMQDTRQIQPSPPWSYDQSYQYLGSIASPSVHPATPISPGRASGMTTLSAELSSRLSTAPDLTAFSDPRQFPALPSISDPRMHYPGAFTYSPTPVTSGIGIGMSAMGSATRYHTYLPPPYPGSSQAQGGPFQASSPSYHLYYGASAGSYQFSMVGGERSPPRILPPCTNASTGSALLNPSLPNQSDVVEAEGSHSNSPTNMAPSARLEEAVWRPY
Chain of UniProt Q01196 (Q13951 whole entry, looked up): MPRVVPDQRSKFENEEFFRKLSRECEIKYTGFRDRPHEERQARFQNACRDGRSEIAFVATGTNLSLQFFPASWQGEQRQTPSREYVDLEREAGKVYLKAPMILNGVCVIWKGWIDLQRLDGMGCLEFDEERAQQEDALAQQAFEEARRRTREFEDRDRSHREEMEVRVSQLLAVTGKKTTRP

Row | SMILES | activity, negative = inhibition | Potency
1 | COc1cccc(S(=O)(=O)Nc2ccc(C(=O)N3CCN(C(=O)c4ccco4)CC3)cc2)c1 | inactive: -14.4% | 
2 | O=c1ccc2c(OCCCCOc3ccccc3)c3ccoc3cc2o1 |  | inconclusive [activator, partial curve]
3 | Cc1cc(C)c(C#N)c(SCc2ccccc2)n1 |  | inconclusive [activator, partial curve]
4 | Cc1ccc(NC(=S)NC(NC(=O)c2ccco2)C(Cl)(Cl)Cl)cc1 (configuration not stated) | inactive: 9.38% | 
5 | COc1ccc(C(=O)COC(=O)c2cccnc2Cl)c(OC)c1 |  | inconclusive [inhibitor, single point]
6 | Cc1cccc(-n2c(C)cc(C=C3C(=O)c4ccccc4C3=O)c2C)c1 |  | inconclusive [inhibitor, single point]
7 | COc1ccc(C(=O)N[C@H](C(=O)Nc2nc3c(s2)CCCC3)C(C)C)cc1 |  | inconclusive [inhibitor, single point]
8 | CC1/C=C/C=C/CC/C=C/C=C/C=C/C=C/C(OC2OC(C)C(O)C(N)C2O)CC2O[C@](O)(CC(O)C(O)CCC(O)CC(O)CC(O)CC(=O)OC(C)C(C)C1O)CC(O)C2C(=O)O (some centres not stated) |  | inconclusive [activator, full curve, poor fit]
9 | COC(=O)C1=C(C(=O)OC)[C@@H]2N(Cc3ccccc3)c3ccccc3[C@@]23C[C@@H](C(=O)OC)N(S(=O)(=O)c2ccc(C#N)cc2)C3=N1 | inactive: -4.14% [at 13.1 µM] | 
10 | CCCCNC(=O)N(C)c1nc2ccccc2s1 | inactive: 6.86% | 
11 | CSC1=Nc2sc3c(c2C2=NCCN12)CCCC3 | inactive: -0.68% | 
12 | COc1cccc(/C=C/C(=O)OCC(=O)NCc2ccco2)c1 |  | inconclusive [inhibitor, partial curve]
13 | Cc1cccc(C(=O)N=c2c(C#N)cc3c(=O)n4cccc(C)c4nc3n2Cc2ccco2)c1 |  | inconclusive [inhibitor, single point]
14 | COc1cc(O)c(C(=O)/C=C/c2ccc(OC)c(O)c2)c(OC)c1 | inactive: 3.48% | 
15 | CN(C(=O)CSc1nnc2ccccn12)C1CCS(=O)(=O)C1 (configuration not stated) | inactive: 0.897% | 
16 | O=[N+]([O-])c1cc(S(=O)(=O)Nc2cccc(C(F)(F)F)c2)ccc1-n1nnc2ccccc21 | inactive: -15.1% | 
17 | Cc1ccc(OCC(=O)NCCC2=CCCCC2)cc1 | inactive: 4.23% | 
18 | COc1ccccc1C(=O)NN1C(=O)/C(=C/c2cccn2C)SC1=S |  | inconclusive [activator, single point]
19 | O=C(CSc1nnc(CN2CCOCC2)n1-c1ccccc1)N1CCc2ccccc21 | inactive: 6.35% | 
20 | O=C=Nc1ccc(Cc2ccc(N=C=O)cc2)cc1 |  | inconclusive [inhibitor, full curve, poor fit]
21 | NNC(=O)c1ccc(COc2cccc3ccccc23)o1 | inactive: -9.14% | 
22 | COc1ccccc1[C@@H]1C(c2ccccc2)=NN(c2ccccc2)[C@H]1C(=O)N1CCOC1=O |  | inconclusive [activator, partial curve]
23 | COc1ccc(OCCCC(=O)Nc2cc([N+](=O)[O-])ccc2C)cc1 | inactive: 0.545% | 
24 | CN1CCC(c2c[nH]c3ccccc23)C1 (configuration not stated) |  | inconclusive [activator, full curve, poor fit]

Row | SMILES | activity, negative = inhibition | Potency
25 | Cc1cccc(C)c1NC1=NCCCS1 |  | inconclusive [activator, partial curve]
26 | CCOc1cccc(=O)c2c(C)n(Cc3ccccc3)c(C)c12 |  | inconclusive [inhibitor, single point]
27 | COc1ccc(C2c3[nH]c4ccccc4c3CCN2C(=O)c2ccc(=O)n(C)n2)c(F)c1 (configuration not stated) | inactive: -27% | 
28 | O=C(NCc1cccnc1)c1ccc(-c2ccc(Cl)cc2)o1 | inactive: 5.97% | 
29 | CC(=O)Nc1ccc(NC(=O)C(Cc2ccccc2)NC(=O)C2CCCCC2)cc1 (configuration not stated) | inactive: 4.42% | 
30 | Nc1ccc(N)cc1 |  | inconclusive [inhibitor, partial curve]
31 | COC(=O)c1cc(=O)n(CCc2ccccc2F)c(=Nc2ccc(F)c(Cl)c2)s1 | inactive: -2.86% | 
32 | COCc1cc(Sc2ccc(OC)cc2)nc(-c2ccccc2)n1 |  | inconclusive [activator, single point]
33 | Cc1ccc(-c2nn(C)c(=O)c3ccccc23)cc1CN1CCOCC1 | inactive: 3.63% | 
34 | Clc1ccc(-n2cccc2)cn1 |  | inconclusive [activator, single point]
35 | CCC(=O)NC(=S)Nc1cccc(C(C)=O)c1 | inactive: 0.299% | 
36 | CC(C)Cc1[nH]c(=O)c(C#N)c2c1CCC2 | inactive: 5.4% | 
37 | O=C(N=Nc1c(O)n(Cc2ccccc2)c2ccccc12)c1cc2ccccc2cc1O |  | inconclusive [inhibitor, single point]
38 | Nn1c(SCc2c(F)cccc2F)nnc1-c1ccccn1 |  | inconclusive [inhibitor, partial curve]
39 | COc1ccc(-c2csc(NC(=O)CSc3nc(SC)ns3)n2)cc1 | inactive: -21.2% | 
40 | O=C(/C=C/c1cccc([N+](=O)[O-])c1)Nc1cccc(NC(=O)c2cccs2)c1 |  | inconclusive [inhibitor, single point]
41 | COC(=O)c1sccc1NC(=O)CSc1ccccc1NS(=O)(=O)c1ccc(F)cc1 |  | inconclusive [inhibitor, single point]
42 | O=C(/C=C/c1ccc(O)c(O)c1)c1ccc(O[C@@H]2O[C@H](CO)[C@@H](O)[C@H](O)[C@H]2O)c(O)c1O | inactive: -13.4% | 
43 | Clc1ccc(SCc2cc(-c3ccc(Cl)cc3)on2)cc1 |  | inconclusive [activator, single point]
44 | CCOc1ccc(N=c2scc(-c3ccccc3)n2CCO)cc1 |  | inconclusive [inhibitor, full curve]
45 | C=CCOC(=O)C1=C(C)NC(SCC(=O)Nc2ccccc2)=C(C#N)C1c1ccco1 (configuration not stated) |  | inconclusive [activator, partial curve, poor fit]
46 | Cc1ccc(NC(=O)CN2C(=O)N/C(=C/c3cc(C)n(-c4ccc(C(=O)O)cc4)c3C)C2=O)cc1 |  | inconclusive [inhibitor, single point]
47 | CCn1nc(NC(=O)c2ccccn2)c2cc3cc(C)ccc3nc21 |  | inconclusive [activator, partial curve]
48 | CCN1/C(=C/C=C/c2oc3ccc4ccccc4c3[n+]2CC)Oc2ccc3ccccc3c21 |  | inconclusive [activator, partial curve, poor fit]

Row | SMILES | activity, negative = inhibition | Potency
49 | O=C(NC(=S)N1CCCc2ccccc21)c1ccc([N+](=O)[O-])cc1 |  | inconclusive [inhibitor, single point]
50 | CN1C/C(=C/c2ccc(B(O)O)cc2)C(=O)/C(=C/c2ccc(B(O)O)cc2)C1 |  | inconclusive [inhibitor, full curve]
51 | COc1ccc(/C=N/N(Cc2ccccc2)c2ccccc2)cc1O | inactive: -24.9% | 
52 | COCCCNC(=O)c1c(N)n(Cc2ccco2)c2nc3ccccc3nc12 |  | inconclusive [activator, partial curve]
53 | Cc1ccc(SCC(Cc2ccccc2)N2CCN(CC(C)C)CCC2=O)cc1 (configuration not stated) |  | inconclusive [activator, single point]
54 | CCCC(C)c1nnc(NC(=O)c2cc(C(=O)OC)cc([N+](=O)[O-])c2)s1 (configuration not stated) | inactive: -4.62% | 
55 | CNc1ccc(Br)cc(C(=O)/C=C/c2cccc(OC)c2OC)c1=O |  | inconclusive [inhibitor, single point]
56 | S=c1[nH]nc(-c2ccco2)n1/N=C/c1cccs1 | inactive: -13% | 
57 | CSCC[C@H](NC(=O)c1ccc(NC[C@@H](N)CS)cc1-c1ccccc1)C(=O)O |  | inconclusive [activator, single point]
58 | O=C(COc1ccc(Cl)cc1)Nc1ncccn1 |  | inconclusive [inhibitor, single point]
59 | COc1ccc(CCN2C(=O)/C(=C\c3ccco3)SC2=S)cc1OC | inactive: 11.5% | 
60 | Cc1ccc(-c2nn(C)c(=O)c3ccccc23)cc1CNC(=O)c1ccccc1 | inactive: 12.6% | 
61 | O=C(c1ccccc1Cl)N(C(=O)c1ccccc1Cl)c1nccc(-c2cccs2)n1 |  | inconclusive [inhibitor, single point]
62 | CCN(CC)S(=O)(=O)c1cc(NC(=O)c2cc(-c3ccccn3)nc3ccccc23)ccc1C |  | inconclusive [inhibitor, single point]
63 | COc1cc(CCCN2C(=S)NC[C@@H]2Cc2ccccc2)cc(OC)c1OC | inactive: 6.21% | 
64 | O=P(Nc1ccccc1)(Oc1ccccc1)Oc1ccccc1 | inactive: 3.21% | 
65 | COc1ccc(N2CCN(C(=O)c3cc4c(-c5cccc(OC)c5)nn(C)c4s3)CC2)cc1 |  | inconclusive [inhibitor, partial curve]
66 | CC(C)Cn1cc(F)c(=O)n(CC(C)C)c1=O | inactive: -3.67% | 
67 | CC(N=Cc1c(O)[nH]c(=O)[nH]c1=O)c1ccccc1 (configuration not stated) | inactive: -3.09% | 
68 | Cc1ccc2nc(N3CCN(C=O)CC3)nc(-c3ccccc3)c2c1 |  | inconclusive [activator, full curve]
69 | C/C(=N\NC(=O)c1ccccc1)c1cc2cc([N+](=O)[O-])ccc2oc1=O | inactive: -6.96% | 
70 | COc1cnc(-c2ccccn2)nc1Sc1ccccc1Cl |  | inconclusive [inhibitor, partial curve]
71 | N#C/C(=C\c1ccccc1O)C(=O)Nc1cccnc1 |  | inconclusive [activator, single point]
72 | CCCCC[C@@H](/C=C/C=C\CCCCCCCCCC(=O)O)OO |  | inconclusive [activator, full curve, poor fit]
